“Also recorded” adds a separate entry of the source. The source holds more than one record for some entries. This is not the full list of results. The source may hold further records. How the calls were made is not given here. The records of an entry differ for a reason that is not stated; dose, time, organism, isomer or construct need not be as stated for each record. Marks in square brackets tell the records apart. The letters are not those of the source and start again with each entry. Counts like (3×) stand for listed records that agree.
Test system: CCRIS mutagenicity, Ames/micronucleus/aberration tests
Experiment: CCRIS mutagenicity studies
[1] = Test System: AMES SALMONELLA TYPHIMURIUM, Strain/Indicator: TA100, Metabolic Activation: RAT, LIVER, S-9, AROCLOR 1254, Method: STANDARD PLATE
[2] = End Point: IN VITRO CHROMOSOMAL ABERRATIONS, Test System: CHL CELLS, Metabolic Activation: NONE
[3] = Test System: AMES SALMONELLA TYPHIMURIUM, Strain/Indicator: TA98, Metabolic Activation: NONE, Method: PREINCUBATION
[4] = Test System: AMES SALMONELLA TYPHIMURIUM, Strain/Indicator: TA98, Metabolic Activation: NONE, Method: STANDARD PLATE
[5] = Test System: AMES SALMONELLA TYPHIMURIUM, Strain/Indicator: TA100, Metabolic Activation: NONE, Method: STANDARD PLATE

COc1cc(CNC(=O)CCCC/C=C/C(C)C)ccc1O
mutagenic call (Test System: AMES SALMONELLA TYPHIMURIUM, Strain/Indicator: TA98, Metabolic Activation: RAT, LIVER, S-9, AROCLOR 1254, Method: STANDARD PLATE): inactive; negative [study A] and inactive; negative [study B] and active; positive [study C] | mutagenic call [1]: active; positive [study A] and inactive; negative [study B] | mutagenic call (Test System: AMES SALMONELLA TYPHIMURIUM, Strain/Indicator: TA100, Metabolic Activation: S-9 (0.5 ML), Method: PREINCUBATION (20 MIN)): active; positive and inactive; negative | mutagenic call (Test System: AMES SALMONELLA TYPHIMURIUM, Strain/Indicator: TA1535, Metabolic Activation: RAT, LIVER, S-9, AROCLOR 1254, Method: STANDARD PLATE): inactive; negative [study A] and active; positive [study B] and inactive; negative [study C] | mutagenic call (Test System: MOUSE LYMPHOMA, Strain/Indicator: L5178Y (TK+/TK-), Metabolic Activation: NONE, Method: SUSPENSION/PLATE): active; positive and inactive; negative

[Si]
mutagenic call (Test System: AMES SALMONELLA TYPHIMURIUM, Strain/Indicator: TA98, Metabolic Activation: NONE, Method: GAS EXPOSURE): active; positive [study A] and inactive; negative [study B] and active; positive [study B] | mutagenic call (Test System: AMES SALMONELLA TYPHIMURIUM, Strain/Indicator: TA1537, Metabolic Activation: NONE, Method: GAS EXPOSURE): active; positive [study A] and inactive; negative [study B] | mutagenic call (Test System: AMES SALMONELLA TYPHIMURIUM, Strain/Indicator: TA1537, Metabolic Activation: RAT LIVER S-9, PHENOBARBITAL AND BETA-NAPHTHOFLAVONE, Method: GAS EXPOSURE): active; positive and inactive; negative

COc1cccc2c1C(=O)c1c(O)c3c(c(O)c1C2=O)C[C@@](O)(C(C)=O)C[C@@H]3O[C@H]1C[C@H](N)[C@H](O)[C@H](C)O1
mutagenic call (Test System: AMES SALMONELLA TYPHIMURIUM, Strain/Indicator: TA1537, Metabolic Activation: NONE, Method: STANDARD PLATE): inactive; negative [study A] and active; positive [study B]

CCn1c2ccccc2c2cc(C=O)ccc21
mutagenic call [2]: inactive; negative; also recorded: authors report equivocal results for structural and ploidy changes at the highes

B#B
mutagenic call (Test System: AMES SALMONELLA TYPHIMURIUM, Strain/Indicator: TA100, Metabolic Activation: NONE, Method: GAS EXPOSURE): active; positive [study A] and active; positive [study B] and inactive; negative [study B]

ClC=C(Cl)Cl
mutagenic call (Test System: AMES SALMONELLA TYPHIMURIUM, Strain/Indicator: TA100, Metabolic Activation: RAT, LIVER, S-9, AROCLOR 1254, Method: VAPOR CHAMBER): inactive; negative and active; positive | mutagenic call (Test System: AMES SALMONELLA TYPHIMURIUM, Strain/Indicator: TA1535, Metabolic Activation: RAT, LIVER, S-9, AROCLOR 1254, Method: VAPOR CHAMBER): inactive; negative and active; positive

O=C(O)C(Br)Br
mutagenic call [3]: active; positive [study A] and inactive; negative [study B] and inactive; negative [study C]

Oc1ccc(/C=C/c2cc(O)cc(O)c2)cc1
mutagenic call (End Point: MICRONUCLEUS, Test System: CHINESE HAMSTER LUNG CELLS, Metabolic Activation: NONE): active; positive and active; positive (aneuploidy)

O=[N+]([O-])c1cccc(O)c1
mutagenic call [3]: active; positive [study A] and inactive; negative [study B] and active; positive [study C] | mutagenic call (Test System: AMES SALMONELLA TYPHIMURIUM, Strain/Indicator: TA100, Metabolic Activation: NONE, Method: PREINCUBATION): active; positive [study A] and inactive; negative [study B] and inactive; negative [study C]

[Cl][Cr]([Cl])[Cl]
mutagenic call (Test System: MOUSE LYMPHOMA CELLS, Strain/Indicator: L5178Y TK+/-, Metabolic Activation: NONE, Method: TFT RESISTANCE): inactive; negative and active; positive | mutagenic call (Test System: MOUSE LYMPHOMA CELLS, Strain/Indicator: L5178Y TK+/-, Metabolic Activation: RAT, LIVER, S-9, AROCLOR 1254, Method: TFT RESISTANCE): inactive; negative and active; positive

O=Cc1ccccc1
mutagenic call (End Point: In vitro chromosomal aberrations, Test System: Chinese hamster lung (CHL/IU) cells, Metabolic Activation: None): active; positive (structural changes and ploidy) (2×); also recorded: active; positive (structural changes)

CCOP(=S)(OCC)SCCSCC
mutagenic call (Test System: Chinese hamster ovary cells, Strain/Indicator: CHO-K1-BH4 (HGPRT), Metabolic Activation: None, Method: Cells exposed for 5 hr): inactive; negative. (test material partially doluble at highest dose.); also recorded: inactive; negative. (ca dept of pesticide regulation reviewer described as equivocal. muta | mutagenic call (Test System: Chinese hamster ovary cells, Strain/Indicator: CHO-K1-BH4 (HGPRT), Metabolic Activation: S-9, Method: Cells exposed for 5 hr): inactive; negative. (test material partially doluble at highest dose.); also recorded: inactive; negative. (ca dept of pesticide regulation reviewer described as equivocal. muta

CCN(CC)c1ccc(N=Nc2sc(C=O)c(Cl)c2C#N)c(NC(=O)COC)c1
mutagenic call [2]: active; positive (structural changes); precipitation occurred at all doses; also recorded: active; positive (structural and ploidy changes); precipitation occurred at all doses; also recorded: active; positive (ploidy changes); precipitation occurred at all doses

CSc1cc(SC)c(N)c(C)c1N
mutagenic call [1]: active; positive [study A] and inactive; negative [study B]

Cc1cc(/C=C/c2ccc3cc(N(C)C)ccc3[n+]2C)c(C)n1-c1ccccc1
mutagenic call [4]: inactive; negative (2×) and active; positive | mutagenic call [5]: inactive; negative and active; positive | mutagenic call (Test System: AMES SALMONELLA TYPHIMURIUM, Strain/Indicator: TA1538, Metabolic Activation: RAT, LIVER, S-9, AROCLOR 1254, Method: STANDARD PLATE): inactive; negative and active; positive

O=C1C[C@H](O)[C@@H]2c3c(ccc(O)c31)-c1ccc(O)c3c1[C@@]2(O)CCC3=O
mutagenic call [4]: inactive; negative [study A] and active; positive [study B] | mutagenic call [5]: inactive; negative [study A] and active; positive [study B]

O=C1O[C@H]([C@@H](O)CO)C(O)=C1O
mutagenic call (End Point: IN VITRO CHROMOSOMAL ABERRATIONS, Test System: CHO CELLS, Metabolic Activation: NONE): active; positive; weak response and inactive; negative (2×)

— PubChem BioAssay AID1259407 (Chemical Carcinogenesis Research Information System (CCRIS), 2018)
